Experimental data: the supplement of paper PMC4967469

Assays:
Assay in all cases: Viability of human cancer cell lines after 72 h of drug (GDSC screen)
[1] = compound: CC(=O)Nc1cccc(-n2c(=O)n(C3CC3)c(=O)c3c(Nc4ccc(I)cc4F)n(C)c(=O)c(C)c32)c1 [Trametinib]; conditions: top dose 1 µM
Protocol: (§1)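 Human cancer cell lines in 384-well plates, medium with 10% serum, drug for 72 h over a 256-fold dose range (nine 2-fold or five 4-fold steps up to the top dose). Adherent lines were fixed and stained with the nucleic acid dye Syto60, suspension lines read with resazurin; signal relative to control wells, capped at 0 and 100%. One two-parameter sigmoid per drug and line, fitted in a mixed model over all curves with the slope shared within a line.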

[2] = compound: COc1cc2nccc(Oc3ccc(NC(=O)Nc4cc(C)on4)c(Cl)c3)c2cc1OC [AV-951]; conditions: top dose 0.128 µM; top dose inferred
Protocol: as §1

[3] = compound: O=C(NC(COc1ccc2[nH]c(=O)[nH]c2c1)c1ccccc1)c1cccn(Cc2ccc(F)c(F)c2)c1=O [KIN001-244]; conditions: top dose 20 µM; top dose inferred
Protocol: as §1

[4] = compound: Nc1ccccc1NC(=O)c1ccc(CNC(=O)OCc2cccnc2)cc1 [MS-275]; conditions: top dose 5 µM; top dose inferred
Protocol: as §1

[5] = compound: CCNC(=O)C[C@@H]1N=C(c2ccc(Cl)cc2)c2cc(OC)ccc2-n2c(C)nnc21 [I-BET-762]; conditions: top dose 20 µM; top dose inferred
Protocol: as §1

[6] = compound: CCc1cncnc1N1CCN(Cc2nc3ccc(C(F)(F)F)cc3[nH]2)CC1 [PF-4708671]; conditions: top dose 10 µM; top dose inferred
Protocol: as §1

[7] = compound: CCN1CCN(Cc2ccc(NC(=O)c3ccc(C)c(/C=C/c4cnc5[nH]ccc5c4OC)c3)cc2C(F)(F)F)CC1 [HG-6-64-1]; conditions: top dose 5.12 µM; top dose inferred
Protocol: as §1

Cell Line | AUC [1] | IC50 [1] [nM] | AUC [2] | IC50 [2] [nM] | AUC [3] | IC50 [3] [nM] | AUC [4] | IC50 [4] [nM] | AUC [5] | IC50 [5] [nM] | AUC [6] | IC50 [6] [nM] | AUC [7] | IC50 [7] [nM]
LOXIMVI (melanoma, semi-adherent) | 0.076 | < 3.91 | 0.988 | > 128 | 0.955 | > 20000 | 0.791 | 1980 | 0.965 | > 20000 | 0.99 | > 10000 | 0.707 | 1140
LP-1 (myeloma, suspension) | 0.992 | > 1000 | 0.993 | > 128 | 0.845 | 10900 | 0.755 | 1440 | 0.546 | 1630 | 0.899 | 8810 | 0.964 | > 5120
LS-123 (large intestine, adherent) | 0.64 | 174 | 0.982 | > 128 | 0.931 | > 20000 | 0.833 | 4840 | 0.981 | > 20000 | 0.94 | > 10000 | 0.886 | > 5120
LS-513 (large intestine, adherent) | 0.383 | 29.5 | 0.985 | > 128 | 0.822 | 12300 | 0.987 | > 5000 | 0.857 | 17400 | 0.987 | > 10000 | 0.933 | > 5120
LS-1034 (large intestine, adherent) | 0.428 | 38.8 | 0.986 | > 128 | 0.867 | > 20000 | 0.915 | > 5000 | 0.861 | 20000 | 0.986 | > 10000 | 0.952 | > 5120
LU-134-A (small cell lung carcinoma, suspension) | 0.979 | > 1000 | 0.962 | > 128 | 0.927 | > 20000 | 0.6 | 599 | 0.623 | 2800 | 0.987 | > 10000 | 0.959 | > 5120
LU-139 (small cell lung carcinoma, suspension) | 0.973 | > 1000 | 0.962 | > 128 | 0.819 | 15700 | 0.526 | 375 | 0.751 | 8260 | 0.924 | > 10000 | 0.963 | > 5120
LU-165 (small cell lung carcinoma, suspension) | 0.987 | > 1000 | 0.961 | > 128 | 0.906 | > 20000 | 0.61 | 651 | 0.899 | > 20000 | 0.946 | > 10000 | 0.938 | > 5120
LXF-289 (lung adenocarcinoma, adherent) | 0.631 | 142 | 0.986 | > 128 | 0.918 | > 20000 | 0.682 | 997 | 0.976 | > 20000 | 0.913 | > 10000 | 0.634 | 745
MC116 (B-cell lymphoma, suspension) | 0.999 | > 1000 | 0.999 | > 128 | 0.775 | 5740 | 0.739 | 1180 | 0.765 | 5440 | 0.997 | > 10000 | 0.896 | 2950
MC-CAR (haematopoietic neoplasm, suspension) | 0.957 | > 1000 | 0.97 | > 128 | 0.663 | 3350 | 0.967 | > 5000 | 0.55 | 1680 | 0.97 | > 10000 | 0.764 | 1670
MDST8 (large intestine, adherent) | 0.102 | < 3.91 | 0.986 | > 128 | 0.873 | 19000 | 0.664 | 889 | 0.894 | > 20000 | 0.956 | > 10000 | 0.958 | > 5120
ME-1 (acute myeloid leukaemia, suspension) | 0.881 | > 1000 | 0.989 | > 128 | 0.983 | > 20000 | 0.766 | 1970 | 0.62 | 2750 | 0.938 | > 10000 | 0.826 | 3390
MEG-01 (chronic myeloid leukaemia, suspension) | 0.281 | 15.6 | 0.787 | 52.1 | 0.797 | 8780 | 0.698 | 1080 | 0.636 | 2890 | 0.934 | > 10000 | 0.108 | < 20
MFM-223 (breast, adherent) | 0.87 | 912 | 0.987 | > 128 | 0.872 | 18800 | 0.983 | > 5000 | 0.989 | > 20000 | 0.981 | > 10000 | 0.835 | 3320
MHH-PREB-1 (B-cell leukaemia, suspension) | 0.94 | > 1000 | 0.988 | > 128 | 0.439 | 867 | 0.626 | 667 | 0.657 | 3240 | 0.934 | > 10000 | 0.715 | 1200
MLMA (hairy cell leukaemia, semi-adherent) | 0.916 | > 1000 | 0.973 | > 128 | 0.626 | 2780 | 0.761 | 1790 | 0.475 | 1070 | 0.953 | > 10000 | 0.622 | 696
MN-60 (B-cell leukaemia, suspension) | 0.987 | > 1000 | 0.972 | > 128 | 0.909 | > 20000 | 0.872 | > 5000 | 0.558 | 1820 | 0.988 | > 10000 | 0.711 | 1290
MOLT-4 (lymphoblastic leukaemia, suspension) | 0.943 | > 1000 | 0.985 | > 128 | 0.837 | 9980 | 0.606 | 577 | 0.887 | 15100 | 0.982 | > 10000 | 0.736 | 1280
MONO-MAC-6 (acute myeloid leukaemia, suspension) | 0.834 | 708 | 0.979 | > 128 | 0.755 | 7150 | 0.522 | 360 | 0.854 | 17200 | 0.909 | > 10000 | 0.335 | 108
MPP-89 (mesothelioma, adherent) | 0.773 | 511 | 0.977 | > 128 | 0.801 | 13400 | 0.74 | 1910 | 0.703 | 5590 | 0.979 | > 10000 | 0.588 | 598
MRK-nu-1 (breast, suspension) | 0.989 | > 1000 | 0.99 | > 128 | 0.775 | 7270 | 0.57 | 477 | 0.965 | > 20000 | 0.965 | > 10000 | 0.882 | 4660
MS-1 (small cell lung carcinoma, suspension) | 0.991 | > 1000 | 0.99 | > 128 | 0.935 | > 20000 | 0.98 | > 5000 | 0.758 | 6250 | 0.978 | > 10000 | 0.912 | > 5120
MZ1-PC (pancreas, adherent) | 0.129 | < 3.91 | 0.98 | > 128 | 0.882 | > 20000 | 0.77 | 2370 | 0.715 | 5940 | 0.965 | > 10000 | 0.588 | 592
MZ2-MEL (melanoma, adherent) | 0.506 | 65 | 0.973 | > 128 | 0.756 | 7910 | 0.894 | > 5000 | 0.983 | > 20000 | 0.983 | > 10000 | 0.58 | 552
MZ7-mel (melanoma, adherent) | 0.154 | 5.08 | 0.984 | > 128 | 0.853 | 16400 | 0.602 | 601 | 0.683 | 4140 | 0.974 | > 10000 | 0.756 | 1810
Mo-T (hairy cell leukaemia, suspension) | 0.979 | > 1000 | 0.966 | > 128 | 0.877 | > 20000 | 0.988 | > 5000 | 0.879 | > 20000 | 0.978 | > 10000 | 0.983 | > 5120
NAMALWA (Burkitt lymphoma, suspension) | 0.991 | > 1000 | 0.985 | > 128 | 0.903 | 19000 | 0.525 | 361 | 0.647 | 2970 | 0.969 | > 10000 | 0.791 | 1910
NB1 (neuroblastoma, semi-adherent) | 0.77 | 420 | 0.981 | > 128 | 0.846 | 16800 | 0.734 | 1580 | 0.928 | > 20000 | 0.91 | > 10000 | 0.94 | > 5120
NB5 (neuroblastoma, adherent) | 0.343 | 22.7 | 0.984 | > 128 | 0.79 | 9020 | 0.762 | 1810 | 0.885 | > 20000 | 0.923 | > 10000 | 0.915 | > 5120

A lower IC50 marks a more sensitive line; a limit (>, <) means that the fit lies beyond the doses tested. AUC is the area under the same curve over the 256-fold range up to the top dose, as a fraction: 1 means no effect, lower means more sensitive. For part of these data: Where the top dose is marked as inferred, it was calculated from the reported fits.
